Experimental findings from the supplement of paper PMC9446081 are described below.

Screen size: about 39,000 compounds; about 220 (0.56%) showed activity. The list shows a part of the results.
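Also: static incubation at 37 °C against the wild-type strain, values averaged over two biological replicates.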

The test deals with Escherichia coli K-12 BW25113. Nature of the test: relative growth (OD600 normalised to plate interquartile mean) (fraction); higher = less growth inhibition, active = 0.2 or less. To be noted: 50 µM; LB; incubation time: overnight (16-24 h).
In the case of `C[C@@H]1CCCCO[C@@H](CN(C)S(C)(=O)=O)[C@@H](C)CN([C@H](C)CO)C(=O)c2cc(N(C)C)ccc2O1`, the relative growth was inactive: 1.01.

For the compound `Cc1noc(C)c1NC(=O)Nc1ccc2c(c1)CC(=O)N([C@H](C)CO)C[C@H](C)[C@@H](CN(C)C(=O)NC(C)C)O2`, the relative growth is inactive: 1.02.

Regarding `COc1cc(OC)cc(C(=O)Nc2nc(-c3ccc4c(c3)CCN4C(=O)CN3CCOCC3)cs2)c1`, the relative growth is inactive: 1.01.

Turning to `c1cnc(-c2cn[nH]c2)cn1`, the relative growth is inactive: 0.976.

Turning to `C[C@@H]1CN([C@H](C)CO)C(=O)Cc2cc(NS(=O)(=O)c3ccc(F)cc3)ccc2O[C@H]1CN(C)C(=O)Nc1cccc2ccccc12`, the relative growth is inactive: 1.02.

Regarding `C[C@]1(CC(=O)O)C(=O)N=C2C=CC=CN21`, the relative growth was inactive: 0.996.

As for `C[C@H](NC(=O)[C@H]1N[C@H]2c3ccc(-c4ccc(C(=O)N(C)C)cc4)c(=O)n3C[C@H]2[C@@H]1CO)c1ccccc1`, the relative growth is inactive: 0.968.

Turning to `CN1CCN(C(=O)C[C@H]2CC[C@H]3[C@H](COc4ccc(NC(=O)c5cscn5)cc4C(=O)N3C)O2)CC1`, the relative growth is inactive: 0.921.

In the case of `C[C@H](CO)N1C[C@H](C)[C@H](CN(C)Cc2ccc(C(=O)Nc3ccccc3N)cc2)Oc2ccc(NS(=O)(=O)c3ccc(Cl)cc3)cc2CC1=O`, the relative growth is inactive: 0.975.

Consider `O=C(C[C@@H]1C=C[C@H](NC(=O)Cc2ccccn2)[C@H](CO)O1)NCCc1ccncc1`, for which the relative growth is inactive: 1.02.

On to `CCC[C@@]1(CCc2ccccc2)CC(=O)[C@@H]([C@H](CC)c2cccc(NS(=O)(=O)c3ccc(C(F)(F)F)cn3)c2)C(=O)O1`, for which the relative growth was inactive: 1.04.

`COc1ccc(CN(C)C[C@@H]2OCCCC[C@@H](C)Oc3ccc(NS(=O)(=O)c4ccc(F)cc4)cc3C(=O)N([C@H](C)CO)C[C@H]2C)cc1`: the relative growth is inactive: 0.998.

In the case of `CC(C)NC(=O)N(C)C[C@H]1Oc2cc(C#Cc3ccccn3)ccc2S(=O)(=O)N([C@H](C)CO)C[C@@H]1C`, the relative growth was inactive: 1.02.

Take `O=C(C[C@@H]1C=C[C@H](NS(=O)(=O)c2ccc(F)cc2)[C@H](CO)O1)N1CCC(Cc2ccccc2)CC1`: the relative growth is inactive: 0.961.

In the case of `O=C1NC(=O)/C(=C\c2ccccc2)N1`, the relative growth is inactive: 1.01.

Turning to `C[C@@H]1CN([C@H](C)CO)C(=O)c2cc(NC(=O)CCCCCC(=O)Nc3ccccc3N)ccc2O[C@@H](C)CCCCO[C@H]1CN(C)Cc1ccc(Cl)c(Cl)c1`, the relative growth is inactive: 1.01.

Take `CC(C)NC(=O)N(C)C[C@@H]1OCCCC[C@H](C)Oc2ccc(NC(=O)C3CCCCC3)cc2C(=O)N([C@H](C)CO)C[C@@H]1C`: the relative growth is inactive: 0.999.

For `C[C@@H]1CCCCO[C@@H](CN(C)Cc2ccncc2)[C@@H](C)CN([C@@H](C)CO)C(=O)c2cc(NC(=O)Nc3ccc4c(c3)OCO4)ccc2O1`, the relative growth is inactive: 1.

With `COc1ccc(NC(=O)N(C)C[C@@H]2OCc3ccccc3-c3c(n(C)c4ccccc34)C(=O)N([C@H](C)CO)C[C@H]2C)cc1`, the relative growth is inactive: 0.949.

With `COc1cccc(C#Cc2ccc3c(c2)O[C@@H](CN(C)S(=O)(=O)c2ccccc2F)[C@H](C)CN([C@H](C)CO)S3(=O)=O)c1`, the relative growth is inactive: 1.03.

Turning to `O=C(O)[C@@H]1CCCCO1`, the relative growth was inactive: 0.994.

In the case of `C[C@H](CO)N1C[C@H](C)[C@H](CN(C)S(=O)(=O)c2cn(C)cn2)Oc2c(NS(C)(=O)=O)cccc2C1=O`, the relative growth was inactive: 0.983.

In the case of `CN(C)CCCNC(=O)C[C@@H]1CC[C@@H]2[C@H](COC[C@@H](O)CN2C(=O)Nc2cc(Cl)cc(Cl)c2)O1`, the relative growth was inactive: 0.972.

Turning to `C[C@@H]1CCCCO[C@@H](CN(C)Cc2ccncc2)[C@@H](C)CN([C@@H](C)CO)C(=O)c2cc(NC(=O)c3ccccc3)ccc2O1`, the relative growth is inactive: 0.97.

`C[C@@H]1CN([C@H](C)CO)C(=O)Cc2cc(NC(=O)Nc3ccc4c(c3)OCO4)ccc2O[C@H]1CN(C)Cc1ccc(Oc2ccccc2)cc1`: the relative growth was inactive: 0.991.

Consider `C[C@@H]1CN([C@H](C)CO)C(=O)CCCn2nncc2CO[C@@H]1CN(C)S(=O)(=O)c1ccc(-c2ccccc2)cc1`, for which the relative growth was inactive: 1.

As for `Cc1noc(C)c1NC(=O)Nc1ccc2c(c1)C(=O)N([C@@H](C)CO)C[C@@H](C)[C@H](CN(C)C(=O)Nc1c(C)noc1C)OCCCC[C@@H](C)O2`, the relative growth was inactive: 0.958.

Consider `C[C@@H]1O[C@@H](O[C@@H]2[C@@H](O)[C@@H](O[C@@H]3O[C@@H](CO)[C@H](O)[C@H]3O)[C@H](OC(=O)[C@]34CCC(C)(C)C[C@H]3C3=CC[C@H]5[C@@]6(C)C[C@H](O)[C@H](O[C@@H]7O[C@@H](C)[C@H](O)[C@@H](O[C@@H]8OC[C@@H](O)[C@H](O)[C@H]8O[C@@H]8O[C@H](CO)[C@@H](O)[C@H](O)[C@H]8O)[C@H]7O)[C@@](C)(CO)[C@@H]6CC[C@@]5(C)[C@]3(C)C[C@H]4O)O[C@H]2C)[C@H](O)[C@H](O)[C@H]1O`, for which the relative growth is inactive: 1.01.

As for `Cc1noc(C)c1NC(=O)Nc1ccc2c(c1)CC(=O)N([C@@H](C)CO)C[C@@H](C)[C@H](CN(C)C(=O)Nc1ccc(C(F)(F)F)cc1)O2`, the relative growth was inactive: 0.986.

For the compound `C[C@@H]1CN([C@@H](C)CO)C(=O)Cc2cc(NS(=O)(=O)c3ccc(F)cc3)ccc2O[C@H]1CN(C)S(=O)(=O)c1ccc(F)cc1`, the relative growth is inactive: 0.993.

With `C[C@H](CO)N1C[C@H](C)[C@H](CN(C)CC2CCOCC2)Oc2ncc(C#Cc3ccc(F)cc3)cc2C1=O`, the relative growth was inactive: 0.995.

For `O=C(/C=C/c1ccc(O)c(O)c1)O[C@@H]1O[C@H](CO)[C@@H](O)[C@H](O)[C@H]1O`, the relative growth is inactive: 1.01.

As for `COc1ccc2c3c(n(c2c1)C)[C@@H](CO)N(C[C@]13CN(C1)C(=O)c1ccccn1)S(=O)(=O)c1ccc(cc1)C`, the relative growth was inactive: 1.03.

`CCCC(=O)Nc1ccc2c(c1)OC[C@@H](C)N(Cc1ccc(-c3ccccn3)cc1)C[C@@H](C)[C@@H](OC)CN(C)C2=O`: the relative growth was inactive: 1.

On to `COc1ccc(NC(=O)N(C)C[C@@H]2OCCCC[C@@H](C)Oc3ccc(NS(=O)(=O)c4ccc(F)cc4)cc3C(=O)N([C@H](C)CO)C[C@@H]2C)cc1`, for which the relative growth was inactive: 0.979.
